# The BET-seq Pho4 binding data (Le et al. 2018)
# The other results are listed elsewhere or left out. Values were computed here from the reads of four pooled replicates and scatter widely.
# Molecular target: T1, Pho4 (S. cerevisiae) (UniProt P07270)
# T1 sequence: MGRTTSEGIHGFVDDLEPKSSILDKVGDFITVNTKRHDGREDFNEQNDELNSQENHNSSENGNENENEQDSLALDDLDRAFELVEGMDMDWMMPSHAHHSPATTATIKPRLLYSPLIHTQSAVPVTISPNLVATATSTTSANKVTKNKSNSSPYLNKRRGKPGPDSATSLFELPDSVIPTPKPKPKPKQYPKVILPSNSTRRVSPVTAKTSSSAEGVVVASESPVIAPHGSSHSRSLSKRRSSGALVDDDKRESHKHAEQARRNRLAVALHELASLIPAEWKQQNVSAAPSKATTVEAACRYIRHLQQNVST
# Experiment: relative binding free energy (BET-seq); higher = weaker binding
# Settings: reference: library average
row,Sequence,relative binding free energy
1,TGGGACACGTGTATTT,0.03 kcal/mol
2,TGTCACACGTGTGCGT,0.01 kcal/mol
3,TTCGGCACGTGAATGG,0.16 kcal/mol
4,TTATACACGTGTGGGT,-0.03 kcal/mol
5,TTGTACACGTGGGTTA,-0.09 kcal/mol
6,AGGAGCACGTGGTGAT,-0.14 kcal/mol
7,GTGGACACGTGTTGTA,-0.04 kcal/mol
8,AGGTTCACGTGGAATT,0.38 kcal/mol
9,AGCGACACGTGAGTGG,0.18 kcal/mol
10,ACGGGCACGTGCGTTG,-0.2 kcal/mol
11,GGCGACACGTGGATGT,0.17 kcal/mol
12,TGAGGCACGTGGATGC,-0.02 kcal/mol
13,GTTTTCACGTGGGGTT,0.13 kcal/mol
14,TTCTGCACGTGCTGGG,0.03 kcal/mol
15,GGGCACACGTGCAGGG,0.04 kcal/mol
16,TGTTGCACGTGTAGCG,0.14 kcal/mol
17,CGGTACACGTGTCGGG,0.11 kcal/mol
18,AGGCGCACGTGGTGCG,-0.13 kcal/mol
19,GTGGACACGTGGCGTT,0.01 kcal/mol
20,TTCTTCACGTGTGGGG,0.32 kcal/mol
21,GTGGTCACGTGGTATC,-0.02 kcal/mol
22,ATGGGCACGTGAATGA,0.21 kcal/mol
23,GTTGTCACGTGATAGG,0.25 kcal/mol

row,Sequence,relative binding free energy
1,CGGTGCACGTGAGGTA,0.21 kcal/mol
2,AGGTCCACGTGTAGGT,0.04 kcal/mol
3,AGAGGCACGTGTTTTT,0 kcal/mol
4,CTTGGCACGTGTTGAG,-0.1 kcal/mol
5,CTCAGCACGTGTTGGT,0.08 kcal/mol
6,TCTGTCACGTGGTGAG,-0.1 kcal/mol
7,AGCAGCACGTGGGGTC,-0.24 kcal/mol
8,ACAGGCACGTGGTGTG,-0.23 kcal/mol
9,GGTTTCACGTGCGTCG,0.35 kcal/mol
10,GTTTTCACGTGAGTCT,0.36 kcal/mol
11,GAAGGCACGTGAGGTG,0.11 kcal/mol
12,GAGTGCACGTGTGCCG,0.1 kcal/mol
13,TGTGACACGTGCAGGC,0.01 kcal/mol
14,ACGTTCACGTGTTTGG,0.23 kcal/mol
15,AGATACACGTGTGGCG,0.07 kcal/mol
16,TAGGGCACGTGCGGCG,-0.2 kcal/mol
17,TGGAACACGTGATGTG,0.19 kcal/mol
18,AAAGGCACGTGAATTT,0.19 kcal/mol
19,GAGTTCACGTGAGGTA,0.5 kcal/mol
20,CTGTGCACGTGTAGGA,-0.15 kcal/mol
21,TGTCACACGTGTGTTA,0.04 kcal/mol
22,AGATGCACGTGGTGAG,-0.1 kcal/mol
23,GTGTACACGTGATAGT,0.04 kcal/mol

row,Sequence,relative binding free energy
1,AAGTGCACGTGGTGTG,-0.19 kcal/mol
2,CTGGCCACGTGGCGTG,-0.11 kcal/mol
3,TCGGGCACGTGGTACG,-0.23 kcal/mol
4,CTGCGCACGTGTTTTG,0.03 kcal/mol
5,AGTTTCACGTGCACGT,0.16 kcal/mol
6,GGGCGCACGTGCGGAG,-0.17 kcal/mol
7,AGTGGCACGTGCGGTC,-0.15 kcal/mol
8,GTCGGCACGTGGGGCC,-0.08 kcal/mol
9,AGGAACACGTGTGAGG,-0.07 kcal/mol
10,GGATACACGTGTAGGG,-0.04 kcal/mol
11,AGGGACACGTGGGGTT,-0.02 kcal/mol
12,GGAGGCACGTGAAGGT,0.2 kcal/mol
13,GTGTCCACGTGATATG,0.08 kcal/mol
14,TATTGCACGTGAGCAT,0.17 kcal/mol
15,TATGTCACGTGTTACA,0.09 kcal/mol
16,GGTTGCACGTGAGCAG,0.26 kcal/mol
17,TAGGCCACGTGTGAGG,-0.07 kcal/mol
18,ATGCGCACGTGTGTGT,-0.08 kcal/mol
19,TATGACACGTGTCAGG,0.03 kcal/mol
20,TATAGCACGTGGGTGA,-0.29 kcal/mol
21,GGGGGCACGTGGTTTG,-0.11 kcal/mol
22,ATTACCACGTGGTTTT,-0.04 kcal/mol
23,GTTAACACGTGTAGGT,0.09 kcal/mol

row,Sequence,relative binding free energy
1,CGGTACACGTGCGGGT,-0.19 kcal/mol
2,AGAGTCACGTGAGGCG,0.35 kcal/mol
3,TCGCGCACGTGGGTGA,-0.24 kcal/mol
4,ATAGGCACGTGGCTGG,-0.21 kcal/mol
5,GGTGTCACGTGCACGT,0.06 kcal/mol
6,GTCGCCACGTGGGGGT,-0.25 kcal/mol
7,ATGTTCACGTGGCTAA,0.21 kcal/mol
8,GAGGACACGTGGATGG,0.02 kcal/mol
9,TGTTTCACGTGCGTAA,0.38 kcal/mol
10,GGAGGCACGTGTTATG,0.02 kcal/mol
11,TGGGGCACGTGAGTTA,0.13 kcal/mol
12,AAGAACACGTGATGTG,0.17 kcal/mol
13,AGATGCACGTGGGTGC,-0.15 kcal/mol
14,TCGATCACGTGGTGTT,0.07 kcal/mol
15,GGAATCACGTGATGGG,0.27 kcal/mol
16,ATAAGCACGTGATTGA,-0.03 kcal/mol
17,ATGTTCACGTGTTGTC,0.3 kcal/mol
18,CTGGGCACGTGAGTTT,0.2 kcal/mol
19,GTTCTCACGTGGTGGT,0.13 kcal/mol
20,AAAGTCACGTGAGTTT,0.26 kcal/mol
21,GGGGGCACGTGTAAGC,0.01 kcal/mol
22,GGTGCCACGTGGGGGC,-0.25 kcal/mol
23,GGGGACACGTGTAGTG,0.1 kcal/mol

row,Sequence,relative binding free energy
1,GCCTGCACGTGGGTTG,-0.17 kcal/mol
2,TTGCCCACGTGGGTTT,-0.08 kcal/mol
3,GGAGTCACGTGTAAAT,0.27 kcal/mol
4,CAGCACACGTGGTGGG,0.06 kcal/mol
5,TGAATCACGTGAGTGA,0.33 kcal/mol
6,AGAGTCACGTGGCCGG,0.01 kcal/mol
7,CTGTTCACGTGCTTGG,0.15 kcal/mol
8,GTCGGCACGTGGGAAG,-0.1 kcal/mol
9,GGTGCCACGTGTCGTG,-0.02 kcal/mol
10,CGTTGCACGTGGGGGG,-0.15 kcal/mol
11,GATAGCACGTGTGAGT,0.02 kcal/mol
12,AGGGACACGTGTGTGT,0.04 kcal/mol
13,GGTTTCACGTGCAATG,0.38 kcal/mol
14,AGTCACACGTGAGAGG,0.3 kcal/mol
15,TGGAGCACGTGTTATT,-0.07 kcal/mol
16,TGGTGCACGTGGCGAA,-0.15 kcal/mol
17,GGATGCACGTGCCGGG,-0.09 kcal/mol
18,TTCATCACGTGGTGTT,0.1 kcal/mol
19,TGTTACACGTGGGTCG,0 kcal/mol
20,TCGGTCACGTGAGGGC,0.35 kcal/mol
21,TACAGCACGTGGTGTT,-0.22 kcal/mol
22,CATTTCACGTGGGTAT,0.2 kcal/mol
23,TGTTACACGTGTGAGC,0.23 kcal/mol
